# Where “and” joins values, the source holds several entries; their conditions need not be identical. Equal entries are not always repeated. The campaign covered roughly 420,000 compounds. About 64,000 (15%) were called active. The inconclusive results got no clear call from the source; some entries with a clear call stand among them for comparison. The call rests on the fitted dose curve; in most records, active means well fitted inhibition curve with a large enough effect; inconclusive means small, poorly fitted or top-dose-only effect; inactive means flat fitted curve, though single readings scatter. A potency beside an inconclusive call is a rough fit, not a confirmed value.
# Assay: qHTS for Inhibitors of human tyrosyl-DNA phosphodiesterase 1 (TDP1): qHTS in cells in absence of CPT; further: nearly all actives have a fitted effect of over 55% in size
# Settings: DT40 Tdp1-/- hTDP1 cells, no CPT, ATP luminescence, 48 h; activity change, negative = growth inhibition: at 46.2 µM (top of the series)
# How it was run: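 Growth kinetics read by CellTiter-Glo luminescence after ≥48 hr at 37 °C. Cells: DT40 Tdp1-/- stably carrying human TDP1, 400 per well, compound exposure in the absence of CPT (DMSO vehicle).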
# On the % scale 0 is the no-effect control and ±100 the full control effect; potency means the concentration at half of the fitted maximal effect; tags describe the fitted curve by direction and shape.
Structure (SMILES),Potency,"activity change, negative = growth inhibition"
COC(=O)c1sc(S(=O)(=O)N2CCN(c3ccc(OC)cc3)CC2)c(C(=O)OC)c1C,"inactive and inconclusive: 25.9 µM [inhibitor, single point]",
CCOC(=O)c1c(C)[nH]c(C(=O)NNC(=O)c2ccc(C(C)(C)C)cc2)c1C,"inconclusive: 16.4 µM [inhibitor, partial curve]",
COc1ccc(C2C3=C(OC(C)=O)c4ccccc4C3=Nc3c2c(=O)n(C)c(=O)n3C)cc1 (centres undefined),,inconclusive: -30.9% [inhibitor]
COc1ccccc1N1CCN(C(=O)C2Cc3ccccc3CN2C(=O)c2ccco2)CC1 (centres undefined),"inconclusive: 25.9 µM [inhibitor, single point]",
Cc1ccccc1-n1ncc2c1CC(C)(C)CC2NC(=O)CCN1Cc2ccccc2C1=O (centres undefined),"inconclusive: 18.4 µM [inhibitor, single point]",
COc1ccc(NC(=O)c2cc3ccccc3oc2=O)c(OC)c1,inactive,
O=C(NCc1ccc(F)cc1)C(c1ccco1)N(C(=O)c1csnn1)C1CC1 (centres undefined),inactive,
Cc1ccc(OCCCCN2CCc3ccccc3C2)c(C)c1,"inconclusive: 25.9 µM [inhibitor, single point]",
Cc1cccc(NC(=O)CS(=O)(=O)c2cn(CC(=O)N3CCOCC3)c3ccccc23)c1,active: 2.31 µM,
Cc1ccc(-n2c(C)cc(C(=O)COC(=O)C3=NNC(=O)CC3)c2C)cc1,"inconclusive: 23.1 µM [inhibitor, single point]",
CCOC(=O)CSc1nc2cc(OC)ccc2cc1C#N,active: 23.1 µM,
OC[C@@H]1[C@@H](c2ccccc2)C(c2ccccc2)=NN1c1ccccc1,active: 16.4 µM,
CC1CCCC(C)N1CCCNC(=O)Cn1ncc2c3ccccc3n(C)c2c1=O (centres undefined),inactive,
Cc1cc(C)nc(NS(=O)(=O)c2ccc(N/C=C\C(=O)c3ccc(Cl)cc3)cc2)n1,"inconclusive: 18.4 µM [inhibitor, partial curve]",
COc1ccc(S(=O)(=O)N2CCN(Cc3ccccc3[N+](=O)[O-])CC2)cc1,"inconclusive: 29.1 µM [inhibitor, single point]",
Cc1ccc(-c2[nH]n3c(=O)c4c(nc3c2C)CCCC4)cc1,"inconclusive: 20.6 µM [inhibitor, single point]",
Cc1ccc(-c2nc3ccccc3[nH]2)cc1NC(=O)COc1ccc(Cl)cc1Cl,active: 5.17 µM,
COc1cc(C(=O)Oc2ccccc2/C=N/NC(=O)c2ccc(Cl)cc2Cl)cc(OC)c1OC,active: 0.92 µM,
CN1CCN(C(=O)c2ccccc2-c2ccccc2C(=O)O)CC1,inactive,
COc1ccc2c(COC(=O)c3ccc(C)c(S(=O)(=O)N4CCOCC4)c3)cc(=O)oc2c1,active: 16.4 µM,
COc1cc(NC(=O)CN2C(=O)C(c3ccc(C)cc3)=NC23CCCCCC3)cc(OC)c1,"inconclusive: 20.6 µM [inhibitor, single point]",
CC1CCCN(S(=O)(=O)c2ccc(C(=O)Nc3ccccc3-c3nc4ccccc4[nH]3)cc2)C1 (centres undefined),active: 10.3 µM,

Structure (SMILES),Potency,"activity change, negative = growth inhibition"
Cc1onc(-c2ccccc2)c1C(=O)Nc1ccc(S(=O)(=O)NC(C)(C)C)cc1,"inconclusive: 11.6 µM [inhibitor, partial curve]",
CC(=O)Nc1c(C)nn(-c2ccccc2)c1N1CCC(C(=O)Nc2ccc(Cl)cc2C)CC1,inactive,
Cn1c(CCN2CCCC2)nc2cc(NS(=O)(=O)c3ccc(Cl)cc3)ccc21,"inconclusive: 29.1 µM [inhibitor, single point]",
Cc1cccc(C)c1N(CC(=O)Nc1cc(Cl)ccc1Oc1ccccc1)S(C)(=O)=O,"inconclusive: 29.1 µM [inhibitor, single point]",
CCCOc1ccc(N2CC(C(=O)NCCc3ccc(OC)c(OC)c3)CC2=O)cc1 (centres undefined),inactive,
Cc1c(Br)c(C(=O)NNC(=O)c2ccc(C(C)(C)C)cc2)nn1C,"inconclusive: 14.6 µM [inhibitor, partial curve, poor fit]",
COc1ccc(N(C(=O)c2cccnc2)S(=O)(=O)c2ccc3c(c2)n(C)c(=O)n3C)cc1,"inconclusive: 16.4 µM [inhibitor, partial curve, poor fit]",
Cc1ccc(NC(=O)CN2C(=O)S/C(=C\c3cc(C)n(C)c3C)C2=O)cc1,inactive,
NC(=O)c1ccsc1NC(=O)Cc1ccc([N+](=O)[O-])cc1,inactive,
CC1(C)N=C(c2ccc(F)cc2)C(=O)N1CC(=O)Nc1ccccc1Cl,active: 16.4 µM,
Cc1[nH]c(-c2ccc(F)cc2)cc1C(=O)N1CCN(c2ccccc2F)CC1,"inconclusive: 29.1 µM [inhibitor, single point]",
COc1ccc(-n2c(=O)c3ccc(C(=O)NCc4ccc(C)cc4)cc3n(Cc3ccc(F)cc3Cl)c2=O)cc1,inactive,
c1ccc2c(c1)ncn2-c1ccc(-c2ccnc(-c3ccncc3)n2)cc1,"inconclusive: 8.2 µM [inhibitor, partial curve]",
Cc1cc(S(=O)(=O)N2CCN(c3ccccc3C)CC2)ccc1F,"inconclusive: 29.1 µM [inhibitor, single point]",
CCOC(=O)c1ccc(OCc2c(C)noc2C)cc1,inactive,
Cc1cccc(N(CC(=O)NCc2ccco2)C(=O)CCC(=O)Nc2nccs2)c1C,inactive,
O=C(O)CCn1cc(/C=C/C(=O)c2ccc(Cl)cc2)c(-c2cccc(Br)c2)n1,active: 23.1 µM,
CN(CC(=O)Nc1ccccc1Cl)C(=O)CSC(=S)N1CCCC1,inactive,
CCOc1ccccc1NC(=O)CSc1nc2c(c(=O)n1C)SC(C)C2 (centres undefined),"inconclusive: 18.4 µM [inhibitor, single point]",
CCCCN1C(=O)C(CC(=O)NC2CCCC2)CC(C(=O)N(C(C)C)C(C)C)=C1C (centres undefined),"inconclusive: 25.9 µM [inhibitor, single point]",
CCOC(=O)c1[nH]c2c(c1C)C(=O)CC(c1ccc(OCC)c(OC)c1)C2 (centres undefined),"inconclusive: 11.6 µM [inhibitor, partial curve]",
CCN(Cc1ccc(C#CCCO)cc1)CC1CCCN(CCc2cccc(F)c2)C1 (centres undefined),active: 20.6 µM,

# Reference: PubChem BioAssay AID686978 (National Center for Advancing Translational Sciences (NCATS), 2013)
